Results from article PMC11459905, “Identification of SLC25A46 interaction interfaces with mitochondrial membrane fusogens Opa1 and Mfn2” (The Journal of Biological Chemistry, 2024).
No constants are given. Whether binding was seen depends on the method and setting. For some of these results: Binding seen in cells or lysates may run through a third protein. Some entries that bind do so weakly or less than the wild type. Tags and fused reporters may be left off the sequences shown. Blank lines part the entries; values can stand above or below the binder they belong to.

Chains of the proteins cited; added tags and fusions are not shown. Residues count along the entry.
UniProt O60313, residues 253-960: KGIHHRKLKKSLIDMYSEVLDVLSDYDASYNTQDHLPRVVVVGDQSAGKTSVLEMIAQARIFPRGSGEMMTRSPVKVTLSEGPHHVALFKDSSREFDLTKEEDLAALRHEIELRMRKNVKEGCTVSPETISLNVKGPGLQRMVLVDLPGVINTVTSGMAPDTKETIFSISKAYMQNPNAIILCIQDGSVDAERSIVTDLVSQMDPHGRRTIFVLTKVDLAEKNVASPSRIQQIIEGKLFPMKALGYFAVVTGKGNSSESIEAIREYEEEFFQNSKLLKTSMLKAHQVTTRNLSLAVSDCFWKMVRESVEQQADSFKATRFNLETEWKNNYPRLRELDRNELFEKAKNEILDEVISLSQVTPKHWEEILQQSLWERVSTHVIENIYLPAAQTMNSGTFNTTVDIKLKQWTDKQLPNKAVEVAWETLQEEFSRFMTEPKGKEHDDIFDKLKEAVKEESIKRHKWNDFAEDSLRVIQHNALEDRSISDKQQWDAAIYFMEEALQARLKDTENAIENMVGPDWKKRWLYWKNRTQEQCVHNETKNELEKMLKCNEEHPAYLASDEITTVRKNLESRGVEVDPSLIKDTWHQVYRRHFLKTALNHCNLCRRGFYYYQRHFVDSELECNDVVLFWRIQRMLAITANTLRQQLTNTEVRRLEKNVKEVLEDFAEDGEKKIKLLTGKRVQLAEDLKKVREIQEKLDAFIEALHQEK

Assays:
[1] = biological target: T1, Mitofusin 2, full length, with C-terminal Twin-Strep tag (Mfn2-Strep) (human), O95140; assay: pull-down; GDN extracts of P. pastoris expressing or coexpressing the proteins; Strep-tagged Opa1 or Mfn2 held on StrepTactin XT 4Flow resin in a spin column, 4 °C, 25 mM Hepes, 150 mM NaCl, pH 8.0, washes with 0.1% GDN, elution with 50 mM biotin; Western blot; also with GTPγS, GMPPCP or GDP added to the lysates (no effect on coelution); settings: remark: other sources report otherwise
T1 chain: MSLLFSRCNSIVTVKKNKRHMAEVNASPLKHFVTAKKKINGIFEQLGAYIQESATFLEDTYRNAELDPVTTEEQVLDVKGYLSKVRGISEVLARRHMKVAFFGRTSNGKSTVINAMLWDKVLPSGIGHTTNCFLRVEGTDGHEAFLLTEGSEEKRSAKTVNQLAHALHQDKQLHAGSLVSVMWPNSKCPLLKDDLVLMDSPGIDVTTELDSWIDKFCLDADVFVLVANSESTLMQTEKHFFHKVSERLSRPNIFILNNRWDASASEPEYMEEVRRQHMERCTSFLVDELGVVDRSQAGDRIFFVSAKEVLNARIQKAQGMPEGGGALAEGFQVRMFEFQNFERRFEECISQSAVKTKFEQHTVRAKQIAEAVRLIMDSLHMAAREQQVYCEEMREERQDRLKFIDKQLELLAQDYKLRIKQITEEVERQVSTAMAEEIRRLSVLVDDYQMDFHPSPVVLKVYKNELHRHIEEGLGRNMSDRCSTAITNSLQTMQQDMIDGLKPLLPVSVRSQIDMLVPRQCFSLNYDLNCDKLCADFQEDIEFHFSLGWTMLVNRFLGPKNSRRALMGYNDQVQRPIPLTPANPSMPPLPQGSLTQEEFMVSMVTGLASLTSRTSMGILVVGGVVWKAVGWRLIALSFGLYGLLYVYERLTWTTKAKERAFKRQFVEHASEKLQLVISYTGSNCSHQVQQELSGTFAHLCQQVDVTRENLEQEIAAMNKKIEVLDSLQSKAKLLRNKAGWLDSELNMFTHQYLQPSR

[2] = biological target: T1, Mitofusin 2, full length, with …; assay: cross-linking; purified complex cross-linked with BS3 or BS(PEG)5, lysine-lysine cross-links identified by mass spectrometry; both purified; settings: remark: other sources report otherwise
[3] = biological target: Strep-Opa1, purified, used at 2 uM in the binding test with purified SLC25A46-His (human) (UniProt O60313); assay: pull-down; purified SLC25A46-His (WT or mutant) incubated with 2 μM Strep-Opa1, StrepTactin binding and elution; input and elution analysed by Western blotting; both purified
[4] = biological target: T2, Mfn2 lacking the two transmembrane segments (Mfn2 (ΔTM)-Strep) (human) (UniProt O95140); assay: pull-down; GDN extracts of P. pastoris expressing or coexpressing the proteins; Strep-tagged Opa1 or Mfn2 held on StrepTactin XT 4Flow resin in a spin column, 4 °C, 25 mM Hepes, 150 mM NaCl, pH 8.0, washes with 0.1% GDN, elution with 50 mM biotin; Western blot; also with GTPγS, GMPPCP or GDP added to the lysates (no effect on coelution)
T2 sequence: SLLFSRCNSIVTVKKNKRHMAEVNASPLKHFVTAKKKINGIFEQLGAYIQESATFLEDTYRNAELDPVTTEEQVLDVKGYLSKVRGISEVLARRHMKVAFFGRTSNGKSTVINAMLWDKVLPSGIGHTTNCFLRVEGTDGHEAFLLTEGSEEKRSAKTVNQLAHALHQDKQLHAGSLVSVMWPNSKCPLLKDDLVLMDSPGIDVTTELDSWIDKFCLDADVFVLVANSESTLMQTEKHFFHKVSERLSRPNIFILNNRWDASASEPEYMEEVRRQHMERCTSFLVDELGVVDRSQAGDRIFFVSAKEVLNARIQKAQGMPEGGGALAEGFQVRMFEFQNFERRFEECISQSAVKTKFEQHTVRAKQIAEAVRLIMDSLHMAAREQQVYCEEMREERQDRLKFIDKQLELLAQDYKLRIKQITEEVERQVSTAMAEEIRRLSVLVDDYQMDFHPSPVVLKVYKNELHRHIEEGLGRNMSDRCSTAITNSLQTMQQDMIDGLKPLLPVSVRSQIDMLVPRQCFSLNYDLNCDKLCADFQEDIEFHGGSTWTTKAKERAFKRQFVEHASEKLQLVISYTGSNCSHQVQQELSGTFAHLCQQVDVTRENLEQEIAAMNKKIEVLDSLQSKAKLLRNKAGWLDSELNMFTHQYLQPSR

[5] = biological target: T3, Mitofusin 2, full length, with C-terminal Twin-Strep tag (Mfn2-Strep) (human) (UniProt O95140); assay: as above
T3 sequence: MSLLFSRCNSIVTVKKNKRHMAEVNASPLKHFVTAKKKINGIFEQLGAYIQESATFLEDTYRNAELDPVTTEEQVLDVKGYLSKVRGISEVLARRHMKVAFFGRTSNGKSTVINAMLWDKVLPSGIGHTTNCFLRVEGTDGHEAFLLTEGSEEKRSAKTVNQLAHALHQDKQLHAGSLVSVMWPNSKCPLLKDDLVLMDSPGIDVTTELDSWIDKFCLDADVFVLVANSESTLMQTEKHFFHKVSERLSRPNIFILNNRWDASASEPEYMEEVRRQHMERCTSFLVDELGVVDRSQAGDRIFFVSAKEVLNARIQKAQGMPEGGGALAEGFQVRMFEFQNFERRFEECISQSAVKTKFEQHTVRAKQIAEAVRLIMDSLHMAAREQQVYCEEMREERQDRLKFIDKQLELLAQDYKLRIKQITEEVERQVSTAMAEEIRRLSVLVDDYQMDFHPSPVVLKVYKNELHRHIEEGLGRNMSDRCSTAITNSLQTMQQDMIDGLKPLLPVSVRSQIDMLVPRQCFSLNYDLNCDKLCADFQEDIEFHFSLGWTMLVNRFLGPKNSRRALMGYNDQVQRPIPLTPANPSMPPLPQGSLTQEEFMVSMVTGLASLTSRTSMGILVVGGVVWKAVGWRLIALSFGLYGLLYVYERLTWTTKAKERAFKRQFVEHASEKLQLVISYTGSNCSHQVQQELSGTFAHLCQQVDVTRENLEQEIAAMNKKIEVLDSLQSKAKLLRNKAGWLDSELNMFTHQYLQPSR

[6] = biological target: T4, Solute carrier family 25 member A46 with C-terminal deca-histidine (SLC25A46-His), wild type (human), Q96AG3; assay: pull-down; GDN extracts of P. pastoris; SLC25A46-His held on Ni-NTA resin; binding buffer with 80 mM and elution buffer with 500 mM imidazole; otherwise as the StrepTactin experiment; settings: remark: other sources report otherwise
T4 chain: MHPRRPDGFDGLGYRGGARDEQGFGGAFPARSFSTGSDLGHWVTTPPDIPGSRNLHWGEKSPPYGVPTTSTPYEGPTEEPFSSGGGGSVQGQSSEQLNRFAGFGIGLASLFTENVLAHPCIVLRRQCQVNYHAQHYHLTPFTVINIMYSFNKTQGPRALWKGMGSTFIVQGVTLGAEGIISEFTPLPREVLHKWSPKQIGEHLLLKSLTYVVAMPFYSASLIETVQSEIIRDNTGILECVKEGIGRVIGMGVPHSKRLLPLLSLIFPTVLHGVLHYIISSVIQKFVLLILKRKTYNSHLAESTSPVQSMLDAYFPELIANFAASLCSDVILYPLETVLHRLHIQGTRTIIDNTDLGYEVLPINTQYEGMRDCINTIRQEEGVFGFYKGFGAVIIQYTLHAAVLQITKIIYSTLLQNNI

binding [1]: binds
binding [2]: binds
B1: Solute carrier family 25 member A46 with C-terminal deca-histidine (SLC25A46-His), wild type, Q96AG3 1-418 (protein)
chain: MHPRRPDGFDGLGYRGGARDEQGFGGAFPARSFSTGSDLGHWVTTPPDIPGSRNLHWGEKSPPYGVPTTSTPYEGPTEEPFSSGGGGSVQGQSSEQLNRFAGFGIGLASLFTENVLAHPCIVLRRQCQVNYHAQHYHLTPFTVINIMYSFNKTQGPRALWKGMGSTFIVQGVTLGAEGIISEFTPLPREVLHKWSPKQIGEHLLLKSLTYVVAMPFYSASLIETVQSEIIRDNTGILECVKEGIGRVIGMGVPHSKRLLPLLSLIFPTVLHGVLHYIISSVIQKFVLLILKRKTYNSHLAESTSPVQSMLDAYFPELIANFAASLCSDVILYPLETVLHRLHIQGTRTIIDNTDLGYEVLPINTQYEGMRDCINTIRQEEGVFGFYKGFGAVIIQYTLHAAVLQITKIIYSTLLQNNI

binding [3]: binds
binding [4]: binds
B2: Solute carrier family 25 member A46 with C-terminal deca-histidine (SLC25A46-His), wild type (natural protein, human, UniProt Q96AG3 1-418, looked up)
chain: MHPRRPDGFDGLGYRGGARDEQGFGGAFPARSFSTGSDLGHWVTTPPDIPGSRNLHWGEKSPPYGVPTTSTPYEGPTEEPFSSGGGGSVQGQSSEQLNRFAGFGIGLASLFTENVLAHPCIVLRRQCQVNYHAQHYHLTPFTVINIMYSFNKTQGPRALWKGMGSTFIVQGVTLGAEGIISEFTPLPREVLHKWSPKQIGEHLLLKSLTYVVAMPFYSASLIETVQSEIIRDNTGILECVKEGIGRVIGMGVPHSKRLLPLLSLIFPTVLHGVLHYIISSVIQKFVLLILKRKTYNSHLAESTSPVQSMLDAYFPELIANFAASLCSDVILYPLETVLHRLHIQGTRTIIDNTDLGYEVLPINTQYEGMRDCINTIRQEEGVFGFYKGFGAVIIQYTLHAAVLQITKIIYSTLLQNNI
notes: SLC25A46, human; gene synthesized (GenScript), cloned into pPICZ A; C terminus fused to (G4S)3 linker, TEV cleavage site and deca-histidine; only a pPICZ A (P. pastoris) construct of SLC25A46 is described; also called WT SLC25A46; source: P. pastoris SMD1163, in GDN extract (lysate); also recombinantly expressed and purified; not shown: His10, C-terminal, kept

binding [5]: no binding
B3: SLC25A46 (1-88)-MBP-His: residues 1 to 88 of SLC25A46 fused to MBP and His tag at the C terminus (domain or fragment, UniProt Q96AG3 1-88)
chain: MHPRRPDGFDGLGYRGGARDEQGFGGAFPARSFSTGSDLGHWVTTPPDIPGSRNLHWGEKSPPYGVPTTSTPYEGPTEEPFSSGGGGS

The next lines start with the binder.

B4: Mitofusin 2, full length, with C-terminal Twin-Strep tag (Mfn2-Strep), O95140 1-757 (protein)
chain: MSLLFSRCNSIVTVKKNKRHMAEVNASPLKHFVTAKKKINGIFEQLGAYIQESATFLEDTYRNAELDPVTTEEQVLDVKGYLSKVRGISEVLARRHMKVAFFGRTSNGKSTVINAMLWDKVLPSGIGHTTNCFLRVEGTDGHEAFLLTEGSEEKRSAKTVNQLAHALHQDKQLHAGSLVSVMWPNSKCPLLKDDLVLMDSPGIDVTTELDSWIDKFCLDADVFVLVANSESTLMQTEKHFFHKVSERLSRPNIFILNNRWDASASEPEYMEEVRRQHMERCTSFLVDELGVVDRSQAGDRIFFVSAKEVLNARIQKAQGMPEGGGALAEGFQVRMFEFQNFERRFEECISQSAVKTKFEQHTVRAKQIAEAVRLIMDSLHMAAREQQVYCEEMREERQDRLKFIDKQLELLAQDYKLRIKQITEEVERQVSTAMAEEIRRLSVLVDDYQMDFHPSPVVLKVYKNELHRHIEEGLGRNMSDRCSTAITNSLQTMQQDMIDGLKPLLPVSVRSQIDMLVPRQCFSLNYDLNCDKLCADFQEDIEFHFSLGWTMLVNRFLGPKNSRRALMGYNDQVQRPIPLTPANPSMPPLPQGSLTQEEFMVSMVTGLASLTSRTSMGILVVGGVVWKAVGWRLIALSFGLYGLLYVYERLTWTTKAKERAFKRQFVEHASEKLQLVISYTGSNCSHQVQQELSGTFAHLCQQVDVTRENLEQEIAAMNKKIEVLDSLQSKAKLLRNKAGWLDSELNMFTHQYLQPSR
binding [6]: binds

B5: (Δ2-83)SLC25A46-His (domain or fragment, UniProt Q96AG3)
chain: MGGGGSVQGQSSEQLNRFAGFGIGLASLFTENVLAHPCIVLRRQCQVNYHAQHYHLTPFTVINIMYSFNKTQGPRALWKGMGSTFIVQGVTLGAEGIISEFTPLPREVLHKWSPKQIGEHLLLKSLTYVVAMPFYSASLIETVQSEIIRDNTGILECVKEGIGRVIGMGVPHSKRLLPLLSLIFPTVLHGVLHYIISSVIQKFVLLILKRKTYNSHLAESTSPVQSMLDAYFPELIANFAASLCSDVILYPLETVLHRLHIQGTRTIIDNTDLGYEVLPINTQYEGMRDCINTIRQEEGVFGFYKGFGAVIIQYTLHAAVLQITKIIYSTLLQNNI
binding [5]: binds
